“And” between values parts separate entries of the source, which are not always exact repeats. Equal entries are not always repeated. Over roughly 5,300 compounds, “PER2::LUC luminescence relative to vehicle control” has its median near 0.96; the highest 2% begin near 1.3. This is one part of the list.
Tested on: mPer2Luc MEF
Experiment: PER2::LUC luminescence relative to vehicle control (fold of vehicle); higher = higher PER2::LUC reporter signal
Conditions: 10 µM
How it was run: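 The reported values are PER2::LUC luminescence as fold of vehicle control in mouse embryonic fibroblasts carrying the mPer2Luc reporter. Cells were seeded at ~3000 per well in 384-well plates in DMEM with 10% FBS at 37 °C and 5% CO2, and compounds were added at 10 μM 48 h later. ONE-Glo luminescence was read 24 h and 30 h after treatment.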

Structure (SMILES) | PER2::LUC luminescence (time after treatment 24 h) | PER2::LUC luminescence (time after treatment 30 h)
O=c1c(O)c(-c2ccc(O)c(O)c2)oc2cc(O)ccc12 | 0.969 | 0.926
O=C(COc1ccc(Cl)cc1)NC1CCC(NC(=O)COc2ccc(Cl)cc2)CC1 (stereo not given) | 1.08 | 0.94
COc1cc2ncnc(Oc3cccc(NC(=O)Nc4cc(C(C)(C)C(F)(F)F)on4)c3)c2cc1OC | 1.02 | 1.2
COc1ccc(-c2cnc3c(-c4cccc5ncccc45)cnn3c2)cc1 | 1.06 | 1.16
NS(=O)(=O)c1cc2c(cc1Cl)N=CNS2(=O)=O | 1.03 | 1.03
COc1cc(C(=O)NS(=O)(=O)c2ccccc2C)ccc1Cc1cn(C)c2ccc(NC(=O)OC3CCCC3)cc12 | 0.989 | 1.24
CN[C@H]1CN(c2ccc3c(=O)c(C(=O)O)cn(-c4nccs4)c3n2)C[C@@H]1OC | 0.84 | 0.409
CC1=C(C(=O)OC(C)C)C(c2cccc([N+](=O)[O-])c2)C(C(=O)OC2CN(C(c3ccccc3)c3ccccc3)C2)=C(N)N1 (stereo not given) | 1.07 | 0.971
Cc1cc(C2CCCCC2)n(O)c(=O)c1 | 0.409 and 0.568 and 0.35 | 0.692 and 0.375 and 0.376
CNC(=O)c1ccccc1Nc1nc(Nc2ccc3c(c2OC)CCC[C@H](N2CCN(CCO)CC2)C3)ncc1Cl | 0.18 | 0.156
S=C1SCN(Cc2ccccc2)CN1Cc1ccccc1 | 0.887 | 0.953
O=C(Nc1ccc(C(=O)Nc2ccc(C(=O)Nc3ccc(S(=O)(=O)O)c4cc(S(=O)(=O)O)cc(S(=O)(=O)O)c34)cc2)cc1)Nc1ccc(C(=O)Nc2ccc(C(=O)Nc3ccc(S(=O)(=O)O)c4cc(S(=O)(=O)O)cc(S(=O)(=O)O)c34)cc2)cc1 | 0.939 | 0.828
CCc1cncnc1N1CCN(Cc2nc3ccc(C(F)(F)F)cc3[nH]2)CC1 | 0.924 | 0.604
O=C(O)c1cc2cc(Cl)ccc2[nH]1 | 0.975 | 0.87
CCn1nnc2c(N3CCOCC3)nc(-c3ccc(NC(=O)Nc4ccc(C(=O)N5CCN(C)CC5)cc4)cc3)nc21 | 0.33 | 0.441
NS(=O)(=O)c1cc(C(=O)O)c(NCc2ccco2)cc1Cl | 0.776 | 0.876
NC(=S)c1ccc[n+]([C@@H]2O[C@@H](COP(=O)([O-])OP(=O)(O)OC[C@H]3O[C@@H](n4cnc5c(N)ncnc54)C(OP(=O)(O)O)[C@H]3O)C(O)C2O)c1 (stereo not given in full) | 1.25 | 0.811
COc1ccc2ccc(=O)oc2c1 | 1 | 1.01
COc1ccc2oc(-c3ccccc3)c(OC)c(=O)c2c1 | 1.54 | 1.73
O=C(O)c1cc(=O)c2ccccc2o1 | 0.998 and 1.05 | 0.946 and 1.14

Structure (SMILES) | PER2::LUC luminescence (time after treatment 24 h) | PER2::LUC luminescence (time after treatment 30 h)
CCC(CC)C(c1ccc(Nc2nc3ccccc3s2)cc1)n1cncn1 (stereo not given) | 1.1 | 1.23
CCOc1cc([C@@H](CS(C)(=O)=O)N2C(=O)c3cccc(NC(C)=O)c3C2=O)ccc1OC | 0.907 and 0.859 | 0.969 and 0.905
CCn1c(=O)c(-c2cc(NC(=O)Nc3ccccc3)c(F)cc2Br)cc2cnc(NC)cc21 | 0.765 | 0.66
CC(C)(C)NCC(O)COc1cccc2[nH]c(=O)[nH]c12 (stereo not given) | 0.958 | 0.913
C#CCC(Cc1cnc2nc(N)nc(N)c2n1)c1ccc(C(=O)N[C@@H](CCC(=O)O)C(=O)O)cc1 (stereo not given in full) | 0.899 | 0.678
O=C(C[S+]([O-])Cc1ccco1)NC/C=C\COc1cc(CN2CCCCC2)ccn1 (stereo not given) | 1.01 | 1
CNC(=O)[C@H]1O[C@@H](n2cnc3c(NCc4cccc(I)c4)nc(Cl)nc32)[C@H](O)[C@@H]1O | 0.498 | 1.15
OCc1ccccc1O | 0.985 and 0.906 | 0.877 and 0.839
O=C(c1ccccc1)c1ccc2n1CCC2C(=O)O (stereo not given) | 1.01 and 0.944 and 0.906 | 1.12 and 1.05 and 0.795
N[C@@H](C(=O)O)[C@@H](O)[C@H](O)[C@H](O)CO | 0.937 | 0.882
COc1c(N2CCNC(C)C2)c(F)cc2c(=O)c(C(=O)O)cn(C3CC3)c12 (stereo not given) | 0.816 | 0.756
CC1(C)CC2C1CCC1(C)OC2(C)CCC1O (stereo not given) | 0.92 | 0.899
NS(=O)(=O)c1cccc2c1c([N+](=O)[O-])cc1[nH]c(=O)c(=O)[nH]c12 | 0.973 | 0.899
Cc1ccccc1C(C(=O)NC1CCCCC1)N(C(=O)Cn1cnc2ccccc21)c1cccc(F)c1 (stereo not given) | 0.892 | 0.875
O=C(Nc1ccccc1Br)N[C@@H]1CCN(c2ccc(C(F)(F)F)cn2)C1 | 1.14 | 1.17
NC(=O)[C@@H]1CCCN1C(=O)[C@H](Cc1c[nH]cn1)NC(=O)[C@@H]1CCC(=O)N1 | 0.616 | 1
O=C(NOCC(O)CO)c1cc(Br)c(F)c(F)c1Nc1ccc(I)cc1F (stereo not given) | 0.749 | 0.684
C/C1=C\CC(C)(C)/C=C/C(=O)/C(C)=C/CC1 | 1.08 | 1.06
CN(C)CC(c1ccc(O)cc1)C1(O)CCCCC1 (stereo not given) | 1.05 and 1.17 | 1.06 and 1.04
COC1=C(OC)C(=O)C(C/C=C(\C)CC/C=C(\C)CC/C=C(\C)CC/C=C(/C)CC/C=C(\C)CC/C=C(\C)CC/C=C(\C)CC/C=C(\C)CC/C=C(\C)CCC=C(C)C)=C(C)C1=O | 0.941 | 0.909
